Among all 310,000 compounds or so, about 14,000 (4.5%) showed an effect of 50% or more. Effects have a minus sign here. The list shows a part of the results.
The molecules below were run against human ether-à-go-go-related gene (hERG) potassium channel (human, UniProt Q12809) (assay: primary screen, population patch clamp on CHO cells stably expressing hERG).
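Note: peak tail current of the secondary pulse compared with the same well before compound.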

Sequence of human ether-à-go-go-related gene (hERG) potassium channel (Q12809 whole entry, looked up): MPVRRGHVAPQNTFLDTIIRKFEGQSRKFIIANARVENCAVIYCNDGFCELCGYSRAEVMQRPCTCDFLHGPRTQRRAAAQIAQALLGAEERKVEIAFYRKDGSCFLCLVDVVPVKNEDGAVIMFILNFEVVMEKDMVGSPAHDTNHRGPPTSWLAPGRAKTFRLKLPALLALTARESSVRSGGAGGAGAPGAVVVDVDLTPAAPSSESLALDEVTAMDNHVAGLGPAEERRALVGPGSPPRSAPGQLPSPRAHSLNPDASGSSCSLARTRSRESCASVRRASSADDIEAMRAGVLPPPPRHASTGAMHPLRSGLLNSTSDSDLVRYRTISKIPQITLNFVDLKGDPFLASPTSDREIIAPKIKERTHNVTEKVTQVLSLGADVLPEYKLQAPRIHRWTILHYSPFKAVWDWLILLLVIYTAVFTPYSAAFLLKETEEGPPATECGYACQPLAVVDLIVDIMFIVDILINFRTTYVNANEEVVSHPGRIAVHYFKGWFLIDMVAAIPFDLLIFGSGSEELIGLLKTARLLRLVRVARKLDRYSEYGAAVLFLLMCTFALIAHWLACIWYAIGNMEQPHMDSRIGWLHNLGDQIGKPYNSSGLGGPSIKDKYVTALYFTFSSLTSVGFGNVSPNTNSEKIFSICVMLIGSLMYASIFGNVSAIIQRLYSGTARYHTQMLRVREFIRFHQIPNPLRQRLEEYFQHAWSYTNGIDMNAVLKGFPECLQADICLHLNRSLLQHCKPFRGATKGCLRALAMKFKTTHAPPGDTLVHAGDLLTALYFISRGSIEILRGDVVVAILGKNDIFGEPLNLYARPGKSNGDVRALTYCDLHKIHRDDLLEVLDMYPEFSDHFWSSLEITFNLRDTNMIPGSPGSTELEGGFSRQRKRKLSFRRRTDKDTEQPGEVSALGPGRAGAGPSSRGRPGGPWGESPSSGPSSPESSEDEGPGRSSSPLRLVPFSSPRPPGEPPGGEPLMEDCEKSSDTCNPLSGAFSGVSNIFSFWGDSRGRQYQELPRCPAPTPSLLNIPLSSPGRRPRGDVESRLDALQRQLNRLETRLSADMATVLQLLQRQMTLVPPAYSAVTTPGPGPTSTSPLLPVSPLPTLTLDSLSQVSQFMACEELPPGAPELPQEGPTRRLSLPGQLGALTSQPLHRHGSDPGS

SMILES	hERG current change (%, negative = inhibition) at 10uM
CS(=O)(=O)N(Cc1ccc(Cl)cc1)c1ccc(C(=O)NCCSc2ccccn2)cc1	-30.5%
O=C(CNC(=S)N(Cc1ccccc1)Cc1cccnc1)NC1CCCC1	-9.37%
CN(CC(=O)Nc1cccc(F)c1)C(=O)C1CC(=O)N(CCc2ccccc2)C1 (centres unmarked)	-4.77%
COc1ccccc1-c1noc(CCC(=O)Nc2cccc(C(F)(F)F)c2)n1	-25.1%
CCC1CCCCN1CCCNC(=O)CCCOc1cc(=O)n(C)c2ccccc12 (centres unmarked)	-6.83%
Br.Cc1nc(C)c(-c2csc(Nc3ccc(N)cc3)n2)s1	-0.808%
CS(=O)(=O)Nc1ccccc1C(=O)NCCSc1ccc(Cl)cc1	2.62%
O=C(NC1CCN(Cc2ccc(Cl)c(Cl)c2)CC1)c1ccccc1	-18.3%
N/N=C(/Cc1nc2ccccc2[nH]1)c1ccc([N+](=O)[O-])cc1	-41.3%
COCc1[nH][nH]c(=O)c1C=Nc1ccccc1	12.9%
CCOc1ccc(N2CC(C(=O)Nc3cccnc3)CC2=O)cc1 (centres unmarked)	-8.23%
CCCCCn1c(CNC(C)=O)nc2ccccc21	0.766%
Cc1ccc(CN2C(=O)C(C)Nc3ncnc(N4CCN(c5ccccn5)CC4)c32)cc1.O=C(O)C(F)(F)F (centres unmarked)	-56.1%
O=C(CSc1nnc(-c2ccco2)n1Cc1ccco1)NCc1cccs1	-33.1%
COc1ccc(NC(=O)NCc2ccco2)c(OC)c1	15.2%
N#Cc1c2n(c3c(=O)n(Cc4ccccc4)cnc13)CCCC2	-39.4%
CCOc1ccc(-n2c(Cc3cc(=O)[nH]c(=O)[nH]3)nnc2SCC)cc1	-0.0826%
CN(Cc1ccccc1)c1cc(Cl)nc(N)n1	-1.61%
O=[N+]([O-])c1ccc2nc(-c3ccccc3)cc(-c3ccccc3)c2c1	8.85%
CN(C)S(=O)(=O)c1ccc(C(=O)Nc2nnc(-c3ccco3)o2)cc1	12.4%
CCOC(=O)CC(=O)CSc1nc2c(sc(=S)n2-c2ccc(OCC)cc2)c(=O)[nH]1	-3.5%
CCN(CC(=O)Nc1ccc2c(c1)OCCO2)CC(=O)Nc1cc(C)on1	14.1%
O=C(NCC1COc2ccccc2O1)C1(c2ccccc2)CCCC1 (centres unmarked)	-28.2%

SMILES	hERG current change (%, negative = inhibition) at 10uM
COc1ccc(-c2nc(NC(=O)c3cc(C(C)(C)C)nn3C)sc2C)cc1	2.69%
O=C(O)C1CCC(=O)N1Cc1ccccc1Cl (centres unmarked)	3.11%
CCOc1ccccc1CN1CCN(S(C)(=O)=O)CC1.O=C(O)C(=O)O	-4.39%
CC[C@H](C)[C@H](NC(=O)OCc1ccccc1)C(=O)OCC(=O)Nc1ccc(N2CCOCC2)cc1	10.7%
COc1ccc(N2CCN(C(=O)c3ccc(CSc4ccccc4)cc3)CC2)cc1	17.1%
CCOC(=O)CSc1nc(Cc2ccccc2)nc2ccccc12	-4.23%
COc1ccc(-c2csc(C3=C(O)CN(C(C)C)C3=N)n2)cc1OC	-8.67%
O=C(NC1CCCCCC1)C1c2ccccc2C(=O)N1CCCN1CCOCC1 (centres unmarked)	-13%
CCOC(=O)N1CCN(C(=O)CSc2ccc3nnc(-c4ccccn4)n3n2)CC1	-36%
CCOC(=O)c1oc2nc(C)c3c(c2c1N)CC(C)(C)OC3	16.1%
CC(=O)CC(C)(C)Nc1nc2ccc([N+](=O)[O-])cc2o1	-3.22%
CN(C)CCCNC(=O)/C(=C\c1ccc(-c2ccc(Br)cc2)o1)NC(=O)c1ccccc1	-75.1%
Cc1cc(=O)[nH]c(-c2ccc(Cl)cc2)n1	6.84%
O=C(Nc1ccc(-n2cccn2)cc1)C1CCCCN1Cc1cccc2c1OCO2 (centres unmarked)	-49.5%
CCC(C)[C@H](NC(=O)NCCCn1ccnc1)C(=O)OC (some centres unmarked)	-1.53%
CC(=O)N/C(=C\c1ccccc1)C(=O)OCc1cccc(S(=O)(=O)N(C)C)c1	-13.9%
CCOc1ccccc1NC(=O)c1cccc2c1C(=O)N(C1CCCCC1)C2	9.57%
CCN1CCN(c2ccc(S(=O)(=O)N3CCOCC3)cc2NC(=O)c2ccc(Cl)s2)CC1	-57.1%
CN(C)c1nc(SCc2ccccc2)nc(N2CCOCC2)n1	-4.83%
Cc1ccc(S(=O)(=O)NNC2CC(=O)N(c3ccc(Br)cc3)C2=O)cc1 (centres unmarked)	23.7%
COc1ccc(C)cc1N(CC(=O)N/N=C/c1ccc2c(c1)OCO2)S(C)(=O)=O	6.53%
O=C(CCC(=O)c1ccc(F)cc1)NC1CCCN(Cc2ccccc2F)C1 (centres unmarked)	-19.4%
O=C(COC(=O)CNC(=O)C1CCCCC1)Nc1ccc(Cl)cn1	-10.2%

SMILES	hERG current change (%, negative = inhibition) at 10uM
O=C1NCCN1C(=O)N(c1ccccc1)c1ccccc1	-0.646%
CCCS(=O)(=O)N1CCN(Cc2ccc(OCc3ccccc3)c(OC)c2)CC1.O=C(O)C(=O)O	-43.2%
CCN1C(c2ccc(F)cc2)=CS/C1=C(\C#N)c1nnc2n1-c1ccccc1SC2	-58.9%
CSC(=S)N/N=C/c1ccc(Br)cc1	19.9%
Cc1ccc(Cn2ccsc2=NC(=O)COC(=O)C(C)C)cc1	-15.3%
CC(C)(C)c1csc(NC(=O)c2ccc(Cl)s2)n1	5.11%
CC(=O)Oc1ccc(N(C(C)=O)S(=O)(=O)c2ccc3ccccc3c2)cc1	17.9%
CCc1nnc(NC(=O)Nc2ccc(Cl)cc2)s1	16.7%
CCOC(=O)CCCCC(=O)c1[nH]c(=O)[nH]c1C[n+]1ccc(C)cc1.[Cl-]	17.5%
Cc1cc(N=Nc2ccccc2C(=O)O)c(C)c(C)c1O	26.4%
CN(C)S(=O)(=O)c1ccc(NC=C(C#N)C#N)cc1	6.95%
O=C(O)C1C2C=CC(C3CC23)C1C(=O)O (centres unmarked)	10.6%
O=Cc1ccc(OCc2ccccn2)cc1	10.1%
CCCCOc1ccc(C(=O)N/C(=C/C=C/c2ccccc2)C(=O)NCCCO)cc1	-28.7%
COc1ccc(OC)c(C2C(C(=O)O)c3ccccc3C(=O)N2C)c1 (centres unmarked)	12.2%
Cc1ccccc1-n1c(O)c(/C=N/NC(=O)c2ccncc2)c(=O)[nH]c1=O	7.93%
COc1ccc(NS(=O)(=O)c2cc(NC(=O)c3sccc3C)ccc2N2CCOCC2)cc1	24.1%
O=C(Nc1ccc2nn(-c3ccccc3)nc2c1)c1cccs1	0.462%
O=C(c1cccc(C(F)(F)F)c1)c1c[nH]c(C(=O)NCC2CCCO2)c1 (centres unmarked)	-15.7%
Cc1ccc2c(c1)N(C(=O)CCC(=O)N1CCN(c3ccccc3)CC1)CCO2	-43.8%
Cc1cc(NS(=O)(=O)c2ccc(-c3ccccc3)cc2)no1	0.855%
CCc1c(C)n([O-])c2c([n+]1=O)CCC2	13.1%
COc1cc(Cl)c(CN2CCC(CO)(CCOc3ccccc3)CC2)cc1OC	-80.7%

SMILES	hERG current change (%, negative = inhibition) at 10uM
C/C(=N/NC(=O)c1cnccn1)c1ccncc1	19.4%
O=C(Nc1ccc2c(c1)CCC2)c1ccc(F)cc1	0.514%
Cc1ccc(N2CC(c3nc4ccccc4n3C)CC2=O)cc1C (centres unmarked)	-13.4%
Cc1noc(C)c1S(=O)(=O)Nc1ccccc1Oc1ccccc1	-1.27%
CN(C)S(=O)(=O)c1ccc(S(=O)(=O)NCc2cccs2)cc1	-2.98%
Cc1c(C=O)c(=O)n(-c2ccccc2)n1-c1ccccc1	14%
Cc1ncc(CO)c(/C=N/NC(=S)Nc2cccc(Cl)c2)c1O	18.9%
COc1cc(OC)cc(C(=O)OC/C(O)=C(\C#N)c2nc3ccccc3[nH]2)c1	-1.13%
Cc1ccc(CCNC(=O)Cc2ccc(NC3=NC4CS(=O)(=O)CC4S3)cc2)cc1 (centres unmarked)	17.8%
COC(=O)c1ccccc1Oc1nc(Cl)cc(OC)n1	-12.1%
Cn1ncc(Cl)c1C(=O)Nc1ccc2c(c1)OCO2	18.1%
CC1=C(C(=O)Nc2cc(C(=O)N3CCN(c4cccc(C)c4)C(C)C3)ccc2C)SCCO1 (centres unmarked)	-12.5%
Cc1cccc(C(=O)OCC(=O)Nc2c(C)nn(-c3ccccc3)c2C)c1O	-16.7%
CC(/C=C/C=C/c1ccccc1)=N/NC(=O)C(O)c1ccccc1 (centres unmarked)	-4.45%
Cc1cccc(-c2nnc(SCC(=O)Nc3cccc(C(=O)N4CCOCC4)c3)n2C)c1	-5.45%
CNc1nc(C)c(C(C)=O)cc1C#N	14.6%
COc1ccc(-n2cnnc2SCC(=O)Nc2cccc([N+](=O)[O-])c2)cc1	4.34%
COC(/C=C/Nc1ccc(OC)cc1)=C(C#N)C#N	-59.9%
CCCCOC(=O)CSC1=C(C#N)C(c2ccccc2OC)C(C#N)C(=O)N1 (centres unmarked)	15.4%
COc1ncnc2c1sc1nc(-c3ccccc3)c3c(c12)CCCC3	15.6%
